Measurements from the supplement of paper PMC4967469.
pIC50: −log10 of the molar value. A lower IC50 marks a more sensitive line; fits outside the tested doses are given as limits. AUC sums up the same curve from the lowest dose to the 256-fold higher top dose; the more sensitive the line, the further below 1. The top dose, if marked as inferred, comes from the curve model; the source does not state it.

Experiments:
Test in all cases: Viability of human cancer cell lines after 72 h of drug (GDSC screen)
BAY 61-3606 = compound: COc1ccc(-c2cc3nccn3c(Nc3ncccc3C(N)=O)n2)cc1OC [BAY 61-3606]; settings: top dose 8 µM; top dose inferred
Experimental: (§1)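 Human cancer cell lines in 384-well plates, medium with 10% serum, drug for 72 h over a 256-fold dose range (nine 2-fold or five 4-fold steps up to the top dose). Adherent lines were fixed and stained with the nucleic acid dye Syto60, suspension lines read with resazurin; signal relative to control wells, capped at 0 and 100%. One two-parameter sigmoid per drug and line, fitted in a mixed model over all curves with the slope shared within a line.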

KIN001-266 = compound: CCN1CCC(n2cc(CNc3cc(Cl)c4ncc(C#N)c(Nc5ccc(F)c(Cl)c5)c4c3)nn2)CC1 [KIN001-266]; settings: top dose 20 µM; top dose inferred
Experimental: as §1

QL-XII-47 = compound: C=CC(=O)N1CCc2ccc(-n3c(=O)ccc4cnc5ccc(-c6cnn(C)c6)cc5c43)cc21 [QL-XII-47]; settings: top dose 10.24 µM; top dose inferred
Experimental: as §1

CCT007093 = compound: O=C1/C(=C/c2cccs2)CC/C1=C\c1cccs1 [CCT007093]; settings: top dose 6.6 µM; top dose inferred
Experimental: as §1

Row | Cell Line | AUC (BAY 61-3606) | pIC50 (BAY 61-3606) | AUC (KIN001-266) | pIC50 (KIN001-266) | AUC (QL-XII-47) | pIC50 (QL-XII-47) | AUC (CCT007093) | pIC50 (CCT007093)
1 | NCI-H748 (small cell lung carcinoma, suspension) | 0.959 | < 5.10 | 0.838 | 4.71 | 0.484 | 6.24 | – | –
2 | NCI-H810 (large cell lung carcinoma, adherent) | 0.797 | 5.44 | 0.853 | 4.84 | 0.333 | 6.65 | – | –
3 | NCI-H1838 (lung adenocarcinoma, adherent) | 0.951 | < 5.10 | 0.937 | < 4.70 | 0.927 | < 4.99 | – | –
4 | NCI-H2171 (small cell lung carcinoma, suspension) | 0.863 | 5.26 | 0.945 | < 4.70 | 0.354 | 6.57 | – | –
5 | NCI-H2196 (small cell lung carcinoma, adherent) | 0.865 | 5.11 | 0.813 | 4.94 | 0.727 | 5.53 | – | –
6 | NCI-H2228 (lung adenocarcinoma, adherent) | 0.808 | 5.15 | 0.875 | < 4.70 | 0.791 | 5.12 | – | –
7 | NK-92MI (lymphoid neoplasm, suspension) | 0.705 | 5.74 | – | – | 0.427 | 6.39 | – | –
8 | OVCA433 (ovary, adherent) | – | – | 0.87 | < 4.70 | 0.771 | 5.36 | 0.968 | < 5.18
9 | OVK-18 (ovary, adherent) | – | – | 0.895 | < 4.70 | 0.74 | 5.47 | 0.961 | < 5.18
10 | PEO1 (ovary, adherent) | – | – | 0.836 | 4.85 | 0.841 | 5.12 | 0.987 | < 5.18
11 | QGP-1 (pancreas, adherent) | – | – | 0.899 | < 4.70 | 0.854 | < 4.99 | 0.979 | < 5.18
12 | RCC-AB (kidney, adherent) | – | – | 0.838 | 4.70 | 0.572 | 5.97 | 0.981 | < 5.18
13 | RCC-ER (kidney, adherent) | – | – | 0.959 | < 4.70 | 0.789 | 5.29 | 0.978 | < 5.18
14 | RCC-FG2 (kidney, adherent) | – | – | 0.862 | < 4.70 | 0.807 | 5.15 | 0.921 | < 5.18
15 | RCC-JF (kidney, adherent) | – | – | 0.849 | 4.74 | 0.568 | 6.00 | 0.96 | < 5.18
16 | RCC-JW (kidney, adherent) | – | – | 0.859 | 4.76 | 0.519 | 6.14 | 0.983 | < 5.18
17 | RCC-MF (kidney, adherent) | – | – | 0.744 | 5.10 | 0.524 | 6.12 | 0.939 | < 5.18
18 | SK-GT-4 (oesophagus, adherent) | – | – | 0.869 | < 4.70 | 0.502 | 6.19 | 0.982 | < 5.18
19 | SK-MEL-5 (melanoma, adherent) | – | – | 0.956 | < 4.70 | 0.853 | < 4.99 | 0.981 | < 5.18
20 | SK-MG-1 (glioma, adherent) | – | – | 0.882 | < 4.70 | 0.931 | < 4.99 | 0.986 | < 5.18
21 | SNU-61 (large intestine, adherent) | – | – | 0.923 | < 4.70 | 0.526 | 6.11 | 0.978 | < 5.18
22 | SNU-81 (large intestine, adherent) | – | – | 0.957 | < 4.70 | 0.834 | 4.99 | 0.979 | < 5.18
23 | SNU-407 (large intestine, adherent) | – | – | 0.968 | < 4.70 | 0.906 | < 4.99 | 0.957 | < 5.18
24 | SNU-C5 (large intestine, adherent) | – | – | 0.95 | < 4.70 | 0.87 | < 4.99 | 0.986 | < 5.18
25 | SU-DHL-10 (B-cell lymphoma, suspension) | – | – | 0.92 | 4.84 | 0.474 | 6.26 | 0.997 | < 5.18
26 | SW1116 (large intestine, adherent) | – | – | 0.967 | < 4.70 | 0.983 | < 4.99 | 0.985 | < 5.18
27 | TE-4 (oesophagus, adherent) | – | – | 0.98 | < 4.70 | 0.983 | < 4.99 | 0.937 | < 5.18
28 | UWB1.289 (ovary, adherent) | – | – | 0.864 | < 4.70 | 0.912 | < 4.99 | 0.966 | < 5.18
29 | YH-13 (glioma, adherent) | – | – | 0.872 | < 4.70 | 0.734 | 5.51 | 0.985 | < 5.18
